The structures appear in SMILES notation. The whole screen tested about 310,000 compounds, of which about 2,200 (0.71%) showed an effect of 50% or more. Effects have a minus sign here. This is one part of the list.

In the assay the target is human ether-à-go-go-related gene (hERG) potassium channel (human, UniProt Q12809). Description: primary screen, population patch clamp on CHO cells stably expressing hERG.
Chain of human ether-à-go-go-related gene (hERG) potassium channel (Q12809 whole entry, looked up): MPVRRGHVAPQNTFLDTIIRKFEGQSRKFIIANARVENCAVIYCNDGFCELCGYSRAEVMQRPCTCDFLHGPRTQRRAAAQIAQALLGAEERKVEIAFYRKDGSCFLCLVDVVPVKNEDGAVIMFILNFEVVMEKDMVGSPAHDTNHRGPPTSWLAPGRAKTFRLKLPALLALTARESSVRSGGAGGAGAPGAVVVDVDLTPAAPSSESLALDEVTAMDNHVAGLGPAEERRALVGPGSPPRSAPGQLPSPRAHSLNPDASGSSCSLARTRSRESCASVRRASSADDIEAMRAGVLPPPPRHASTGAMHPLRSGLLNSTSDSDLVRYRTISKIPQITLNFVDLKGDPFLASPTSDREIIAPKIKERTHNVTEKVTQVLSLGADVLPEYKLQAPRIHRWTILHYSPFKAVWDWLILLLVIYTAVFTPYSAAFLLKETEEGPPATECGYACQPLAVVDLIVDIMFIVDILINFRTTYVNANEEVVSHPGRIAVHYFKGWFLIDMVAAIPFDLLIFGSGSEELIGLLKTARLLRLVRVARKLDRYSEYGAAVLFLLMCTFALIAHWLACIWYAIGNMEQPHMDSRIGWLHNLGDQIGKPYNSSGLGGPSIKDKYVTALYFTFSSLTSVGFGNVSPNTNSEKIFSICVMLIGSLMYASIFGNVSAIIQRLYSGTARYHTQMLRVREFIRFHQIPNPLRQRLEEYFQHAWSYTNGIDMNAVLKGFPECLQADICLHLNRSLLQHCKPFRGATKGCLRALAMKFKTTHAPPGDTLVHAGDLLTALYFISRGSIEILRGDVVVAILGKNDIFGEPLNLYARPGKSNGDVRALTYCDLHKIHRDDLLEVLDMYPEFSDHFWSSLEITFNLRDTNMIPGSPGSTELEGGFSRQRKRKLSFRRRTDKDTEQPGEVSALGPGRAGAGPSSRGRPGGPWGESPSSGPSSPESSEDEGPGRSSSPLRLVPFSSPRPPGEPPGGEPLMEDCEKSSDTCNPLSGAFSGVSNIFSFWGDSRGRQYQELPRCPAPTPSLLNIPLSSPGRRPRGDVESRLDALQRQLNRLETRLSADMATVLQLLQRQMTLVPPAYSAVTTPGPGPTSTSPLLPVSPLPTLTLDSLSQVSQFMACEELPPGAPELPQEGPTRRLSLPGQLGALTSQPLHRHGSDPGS
For the molecule `CCOc1cc2sc(N3CCC(C(=O)NCCCN4CCCC4=O)CC3)nc2cc1Br`, the “hERG current change (%, negative = inhibition) at 1uM” value was -4.54%.
Under `CC1=C(C(=O)OC2CCCCC2)C(c2ccco2)C2=C(CC(C)(C)CC2=O)N1` (stereo not drawn) stands 5.89%.
As for `COC(=O)c1ccccc1NC(=O)CN1C(=O)CSC1=O`, the figure is 1.49%; as for `CN(Cc1ccccc1)C(=O)c1cccc(N2C(=O)NC3CC2(C)Oc2ccccc23)c1` (stereo not drawn), 6.79%.
Regarding `O=C(COc1ccccc1)NCc1nnc2c3ccccc3c(-c3ccccc3)nn12`, the “hERG current change (%, negative = inhibition) at 1uM” value is on record as -12.4%.
Under `O=C(O)CC1S/C(=N/N=C/c2ccc(-c3ccc(Cl)c([N+](=O)[O-])c3)o2)NC1=O` (stereo not drawn) stands 15.9%; under `CC(=O)c1ccc(Cc2ncc(C(F)(F)F)cc2Cl)s1`, 6.83%; under `CCOC(=O)[C@@H]1[C@H]2COc3cc(OC)ccc3[C@H]2N2C(=O)N(c3ccc(C(F)(F)F)cc3)C(=O)[C@@]12C`, 0.102%.
Regarding `Cc1cccn2c(CNCCCOc3cccnc3)c(C(=O)N3CCOCC3)nc12`, the “hERG current change (%, negative = inhibition) at 1uM” value is 0.598%.
Take `CCCCN(C(=O)C1CC1)C1CCS(=O)(=O)C1` (stereo not drawn): the “hERG current change (%, negative = inhibition) at 1uM” value is on record as -3.22%.
As for `Cc1[nH]c2c(Br)cccc2c1[C@H]1[C@@H](CC#N)C1(C)C`, the figure is 9.26%.
In the case of `O=C(O)CC(Sc1n[nH]c(=S)s1)C(=O)O` (stereo not drawn), the “hERG current change (%, negative = inhibition) at 1uM” value was found to be 11.5%.
On to `CC(C(=O)NCc1ccc2c(c1)OCO2)N(c1ccccc1)S(C)(=O)=O` (stereo not drawn), for which the “hERG current change (%, negative = inhibition) at 1uM” value is 6.39%.
For the molecule `Cc1c(NC(=O)c2ccc(Cl)c(S(=O)(=O)N3CCOCC3)c2)c(=O)n(-c2ccccc2)n1C`, the “hERG current change (%, negative = inhibition) at 1uM” value worked out at 13.8%.
With `CCn1c(=O)c(C(=O)NCc2ccc3c(c2)OCO3)c(O)c2ccccc21`, the “hERG current change (%, negative = inhibition) at 1uM” value turned out to be 12.6%.
Consider `O=C(N/N=C/c1cccc([N+](=O)[O-])c1)c1ccc2c(c1)OCCO2`, for which the “hERG current change (%, negative = inhibition) at 1uM” value is given as 10.7%.
Turning to `CNCc1nc2ccccc2[nH]1.Cl`, the “hERG current change (%, negative = inhibition) at 1uM” value is 14.6%.
Under `COc1ccc(CCNC(=O)C2CCN(C(=O)c3ccc(C(C)(C)C)cc3)CC2)cc1OC` stands 14.9%.
`CN(CC(O)Cn1c2ccccc2c2ccccc21)S(C)(=O)=O` (stereo not drawn): the “hERG current change (%, negative = inhibition) at 1uM” value amounted to 10.5%.
Consider `COc1ccc(NS(=O)(=O)NC(=O)c2c[nH]c3ccccc23)cc1`, for which the “hERG current change (%, negative = inhibition) at 1uM” value is recorded as 9.58%.
Take `O=S(=O)(c1ccccc1)N1N=C(c2ccccc2)CC1c1ccco1` (stereo not drawn): the “hERG current change (%, negative = inhibition) at 1uM” value turned out to be 15.9%.
As for `Nc1ccc(Cl)c(S(=O)(=O)Nc2cccc(Cl)c2)c1`, the figure is 4.24%; as for `CC(C)N(C(=O)CN1C(=O)NC(c2ccccc2)(c2ccccc2)C1=O)C(C)C`, 9.86%.
Under `NN(Cc1ccccc1)C(=S)Nc1ccc(Cl)c(Cl)c1` stands 12%.
As for `Cc1nn(Cc2ccccc2)c(Cl)c1/C=C1\NC(=S)NC1=O`, the figure is 10.6%.
Turning to `O=C(c1cc2cc(F)ccc2[nH]1)N1CCc2ccccc21`, the “hERG current change (%, negative = inhibition) at 1uM” value amounted to 11%.
As for `Cc1cc(C)nc(SCCCNCc2c(F)cccc2Cl)n1.Cl`, the figure is 9.75%.
As for `CC1CCCCN1C(=O)c1ccc(COc2ccc([N+](=O)[O-])cc2)o1` (stereo not drawn), the figure is -18.9%; as for `CC(=O)N1CCN(c2ccc([N+](=O)[O-])cc2)CC1`, -26%.
As for `Cc1ccccc1NC(=S)N(C)CCc1ccccn1`, the figure is 13.2%; as for `O=C(NCc1ccco1)c1cc(-c2cccnc2)nc2ccc(Cl)cc12`, -1.37%; as for `O=C(Nc1cccc2ccccc12)c1cc2c(cc1Br)OCO2`, -1.57%.
Consider `CCN1CCN(c2cc3c(nn2)Oc2ccccc2N3C)CC1`, for which the “hERG current change (%, negative = inhibition) at 1uM” value is -6.62%.
Regarding `CN1CCCN(C(=O)c2cccc(Cl)c2)CC1`, the “hERG current change (%, negative = inhibition) at 1uM” value is listed as 7.89%.
Under `O=S(=O)(Nc1ccc(Cl)cn1)c1cccs1` stands 11.9%.
For the molecule `Cc1ccc(CN2CCN(/N=C/c3ccc(C(F)(F)F)cc3)CC2)c(C)c1`, the “hERG current change (%, negative = inhibition) at 1uM” value was 4.31%.
Turning to `COc1ccc(-c2nc(CS(=O)(=O)CC(=O)NC3CCCCCC3)c(C)o2)cc1`, the “hERG current change (%, negative = inhibition) at 1uM” value is on record as 8.16%.
Under `COc1cc2c(cc1OC)C(c1cc3ccccc3oc1=O)=NC(C)(C)C2` stands 12.1%.
As for `O=C(Nc1ccc(N2CCCC2=O)cc1)c1cncc(Br)c1`, the figure is 16.5%; as for `CC(=O)OCC1O[C@@H](O[C@@H]2C[C@H]3C(C)(C)[C@H](OC(C)=O)CC[C@]3(C)[C@H]3CC[C@]45C[C@]4(CC[C@H]5[C@@H](C)C[C@@H](O)[C@H](O)C(C)(C)O)[C@@]32C)[C@H](O)[C@@H](O)[C@@H]1O` (stereo partly drawn), 11.1%; as for `COc1cccc(OC)c1C(=O)NC(=S)N1C[C@H]2C[C@H](C1)c1cccc(=O)n1C2`, -1.32%.
Turning to `Cc1cc(NC(=O)c2cc(S(=O)(=O)N3CCCCC3)ccc2C)n(-c2ccccn2)n1`, the “hERG current change (%, negative = inhibition) at 1uM” value is given as -2.46%.
Take `CC1(C)CC[C@]2(C)CC[C@]3(C)C4C[C@@H]5OO[C@@]6(O5)C(CCCC6(C)C)[C@]4(C)CC[C@@]3(C)C2C1` (stereo partly drawn): the “hERG current change (%, negative = inhibition) at 1uM” value is 10.8%.
As for `COc1ccc(C(=O)OCC(=O)NC2CC2)cc1[N+](=O)[O-]`, the figure is 12.6%.
As for `O=C(COC(=O)c1ccccc1OC(F)F)Nc1ccc(N2CCCCC2)cc1`, the “hERG current change (%, negative = inhibition) at 1uM” value was determined as 1.28%.
As for `COc1cccc(NC(=O)CN(C)C(=O)c2sc3cc(Cl)ccc3c2Cl)c1`, the figure is 11%; as for `CCC(=O)Nc1cccc(NC(=S)NC(=O)c2cccc(C)c2)c1`, 13.9%.
In the case of `COc1ccccc1N1CCN(C(=O)COc2cc(C)ccc2C)CC1`, the “hERG current change (%, negative = inhibition) at 1uM” value is recorded as -7.28%.
As for `CCN(CC)c1ccc(-c2nc3cnccc3n2C)cc1`, the figure is -2.66%.
As for `CCNC(=S)NNC(=O)c1ccccc1Cl`, the figure is 15.9%.
Under `C[C@H](NC(=O)c1nc[nH]c1C(=O)N[C@@H](CCCC[NH3+])C(=O)OC(C)(C)C)C(=O)OC(C)(C)C.[Cl-]` stands 9.38%; under `COc1ccc(CCNS(=O)(=O)c2cn(C)nc2C)cc1OC`, 11.3%; under `O=C(CSc1nc(-c2ccc(F)cc2)cs1)N1CCc2ccccc21`, 11%.
With `CCOC(=O)c1sc2ccccc2c1OC(=O)c1ccc(C)cc1`, the “hERG current change (%, negative = inhibition) at 1uM” value was found to be 8.48%.
On to `CCOC(=O)c1nc(Nc2ccc(C(=O)OC)cc2)c2ccccc2n1`, for which the “hERG current change (%, negative = inhibition) at 1uM” value amounted to 8.79%.
Under `CCn1c(/C=C2/C(=O)N(C)c3ccccc32)nc2ccccc2c1=O` stands 8.81%.
With `O=C(Cn1cccc1C(=O)c1ccccc1)NCc1ccc(F)cc1`, the “hERG current change (%, negative = inhibition) at 1uM” value is recorded as 7.48%.
Under `COC(=O)Cc1c(OC)ccn(CCc2c[nH]c3ccccc23)c1=O` stands 11.5%.
Under `Cc1ccc(S(=O)(=O)N2CCN(C(=O)COC(=O)c3cc(C)oc3C)CC2)cc1` stands 10.9%.
With `c1ccc2c(c1)OCC(c1csc3ncnc(N4CCCC4)c13)O2` (stereo not drawn), the “hERG current change (%, negative = inhibition) at 1uM” value turned out to be 13.3%.
Consider `CNc1ccc(C(O)(C(F)(F)F)C(F)(F)F)cc1C(O)(C(F)(F)F)C(F)(F)F`, for which the “hERG current change (%, negative = inhibition) at 1uM” value stood at 12.9%.
On to `COc1ccc(CNC(=O)C(NC(C)=O)C(C)C)cc1OC` (stereo not drawn), for which the “hERG current change (%, negative = inhibition) at 1uM” value came out at 10.9%.
On to `O=C(O)c1cc2ccc3cccc4ccc(c1)c2c34`, for which the “hERG current change (%, negative = inhibition) at 1uM” value is recorded as 1.08%.
Under `O=C(Cc1n[nH]c(=O)c2ccccc12)OCC(=O)N(Cc1ccccc1)Cc1ccccc1` stands 2.78%; under `CC(NC(=O)/C=C/c1ccco1)c1nc2ccccc2n1Cc1c(Cl)cccc1Cl` (stereo not drawn), 1.8%; under `COc1ccc(/C=N/NC(=O)c2nc(-c3ccccc3)cc(-c3ccccc3)n2)cc1O`, 5.41%.
`N/C(=N\OC(=O)CC1CCCCC1)c1cccnc1`: the “hERG current change (%, negative = inhibition) at 1uM” value was -2.21%.
Turning to `COC(=O)c1ccc(CNC(=O)c2ccc(S(=O)(=O)N3CCCC(C)C3)cc2)cc1` (stereo not drawn), the “hERG current change (%, negative = inhibition) at 1uM” value came out at 8.14%.
As to `COC(=O)[C@]1(CC(C)C)N[C@H](c2ccc(-c3ccc4c(c3)OCO4)cc2)[C@@H]2C(=O)N(C)C(=O)[C@@H]21.O=C(O)C(F)(F)F`, the “hERG current change (%, negative = inhibition) at 1uM” value was 11.9%.
Under `COc1ccc(-c2nnc(SCc3nnc(-c4ccc(Cl)cc4)o3)n2-c2ccccc2)cc1` stands 6.82%.
As for `O=C(COC(=O)c1cccc(C(=O)OCC(=O)NC2CC2)n1)NC1CC1`, the figure is 10.5%; as for `Cc1ccc(CC(=O)Nc2cccc(S(=O)(=O)N3CCOCC3)c2)cc1`, -18.8%.
As for `CCc1ccc(C2NC(=S)NC3=C2C(=O)CC(C)(C)C3)cc1` (stereo not drawn), the figure is 16.5%; as for `Cc1ccc(N=C2NC(=O)c3cc([N+](=O)[O-])ccc32)cc1`, 2.04%.
On to `O=C(O)/C(=C\c1ccccc1OC(F)F)Sc1nnc(-c2ccc(F)cc2)o1`, for which the “hERG current change (%, negative = inhibition) at 1uM” value is -1.51%.
Take `CCCN(CCC)c1nc(C#N)nc(N(CCC)CCC)n1`: the “hERG current change (%, negative = inhibition) at 1uM” value is 1.68%.
As for `O=C(CCCn1nnc2ccccc2c1=O)N[C@@H](Cc1ccccc1)C(=O)O`, the figure is 16.8%; as for `CCC(=O)Nc1cccc(-n2nnnc2SCC(=O)N2CCCCC2)c1`, 12%; as for `CCO/N=C1\C(=O)N(c2ccccc2)c2ccccc21`, 7.81%.
Under `COc1cc(CNC2CCCC2)c(Br)cc1OC1CCCC1.Cl` stands -14.4%; under `O=C(/C=C\Nc1ccc2c(c1)OCO2)c1ccc(Cl)s1`, 27.4%.
Under `CCOc1cc2[nH]c(=S)n(Cc3ccc(C(=O)NCCCOC)cc3)c(=O)c2cc1OCC` stands 19.8%; under `COc1ccc(CCNC(=O)CSCc2ccc(C)cc2)cc1OC`, 6.09%.
Consider `O=C(NCC(c1cccs1)N1CCOCC1)c1ccc(Cl)c([N+](=O)[O-])c1` (stereo not drawn), for which the “hERG current change (%, negative = inhibition) at 1uM” value was found to be 1.49%.

For the origin of these results see paper PMC4336329 (PLoS ONE, 2015).
